# Test results: PubChem BioAssay AID485294 (National Center for Advancing Translational Sciences (NCATS), 2010)
# In all, about 370,000 compounds went through this assay and about 150 (0.041%) were called active. The inconclusive results got no clear call from the source; some entries with a clear call stand among them for comparison. The call rests on the fitted dose curve; in most records, active means well fitted inhibition curve with a large enough effect; inconclusive means small, poorly fitted or top-dose-only effect; inactive means flat fitted curve, though single readings scatter. Potencies of inconclusive entries are left out as doubtful fits.
# Biological target: Beta-lactamase (Escherichia coli (strain K12)) (UniProt P00811)
# Assay: qHTS Inhibitors of AmpC Beta-Lactamase (assay with detergent); further: nearly all actives have a fitted effect of over 25% in size;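 on activity change, negative = inhibition: 0% = no-compound wells and -100% = no-enzyme wells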
# Conditions: AmpC hydrolysis of nitrocefin, absorbance 480 nm, 0.01% Triton; activity change, negative = inhibition: at 114 µM (top of the series)
# How it was run: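 20 mM phosphate pH 7.0 + 0.01% (detergent screen) or 0.0001% Triton X-100; 5.3 nM AmpC reagent; cpd preinc 15 min RT; nitrocefin (800 uM stock) to start; A480 q20 s × 4 min; Activity was normalised to no-enzyme and no-compound control wells.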
# Potency means the concentration at half of the fitted maximal effect; tags describe the fitted curve by direction and shape.
# UniProt P00811, sequence (P00811 whole entry, looked up): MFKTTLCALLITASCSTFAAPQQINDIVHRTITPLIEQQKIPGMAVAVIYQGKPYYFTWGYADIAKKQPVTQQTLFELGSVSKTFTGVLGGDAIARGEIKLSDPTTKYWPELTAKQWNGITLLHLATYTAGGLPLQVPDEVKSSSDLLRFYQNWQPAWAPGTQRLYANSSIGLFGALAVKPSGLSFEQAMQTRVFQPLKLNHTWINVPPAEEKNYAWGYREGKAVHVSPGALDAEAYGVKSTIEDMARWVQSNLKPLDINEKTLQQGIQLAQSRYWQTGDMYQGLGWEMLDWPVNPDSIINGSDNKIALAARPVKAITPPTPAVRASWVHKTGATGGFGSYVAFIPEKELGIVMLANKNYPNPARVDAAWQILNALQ
SMILES,"activity change, negative = inhibition",Potency
COc1cc(Cl)c(C)cc1NC(=O)Cn1c2ncccc2c(=O)n1-c1ccccc1,inactive: -5.5%,–
O=C(Nc1ccc(Cl)cc1)Nc1ccc2c(c1)OCO2,inactive: -0.544%,–
COCCCNC(=O)/C(C#N)=C/c1ccc(F)cc1,–,"inconclusive [inhibitor, partial curve, poor fit]"
Cc1cc(/C=C(/C#N)C(=O)O)c(C)n1CCC(C)C,inactive: 1.32%,–
CC(=O)N1CCN(C(=O)CN2C(=O)NC(C)(c3ccc4ccccc4c3)C2=O)CC1 (stereo unspecified),inactive: -11.3%,–
CCC1=C(OC(=O)c2ccccc2)C(C)(C)C(c2ccccc2)OC1=O (stereo unspecified),–,"inconclusive [inhibitor, full curve, poor fit]"
O=C(NCc1ccc(Cl)s1)C1CCC(=O)N(CCc2cccc(F)c2)C1 (stereo unspecified),–,"inconclusive [inhibitor, full curve, poor fit]"
CCOC(=O)C(C)Sc1ncc(-c2ccc(Cl)cc2)cn1 (stereo unspecified),inactive: 3.65%,–
CS(=O)(=O)c1ccccc1C(=O)Nc1cc(Cl)ccc1-n1cncn1,–,"inconclusive [inhibitor, partial curve, poor fit]"
CCCN=Cc1c(CCC)[nH]n(-c2nc3ccccc3s2)c1=O,–,"inconclusive [inhibitor, single point]"
Cc1nc2ccccc2c2oc(C(=O)NCC3COc4ccccc4O3)cc12 (stereo unspecified),inactive: -5.63%,–
O=C1c2ccccc2NC(c2c(Cl)cccc2Cl)N1Cc1ccccc1 (stereo unspecified),inactive: 2.66%,–
CC(=O)Nc1cc(C(C)(C)C)c(O)c(C(C)(C)C)c1,inactive: 0.627%,–
CC(NC(=O)Nc1cccc(Cl)c1)C(c1cccs1)N1CCCC1 (stereo unspecified),inactive: -0.335%,–
CC1CC(C)CN(CC(=O)NC(c2ccccc2)c2ccccc2)C1 (stereo unspecified),inactive: 1.78%,–
Cc1ccc(C(=O)CSc2ccc(-c3ccccc3)nn2)cc1,–,"inconclusive [inhibitor, full curve, poor fit]"
CC1CCN(CC(O)Cn2c3ccccc3c3ccccc32)CC1 (stereo unspecified),inactive: 1.33%,–
CCOC(=O)C1(CCOc2ccccc2)CCN(Cc2cccc(O)c2)CC1,–,"inconclusive [inhibitor, partial curve, poor fit]"
O=C(CSc1n[nH]c(-c2cccnc2)n1)Nc1ccc(Cl)cc1,–,"inconclusive [inhibitor, full curve, poor fit]"
CC(=O)Nc1cccc(NC(=O)c2cccc3cccnc23)c1,inactive: 4.09%,–
COc1ccc(NC(=O)CCN2CCCC(C)C2)cc1 (stereo unspecified),inactive: 2.14%,–
COCCN(C(=O)c1cccc(OC)c1)c1nnc(-c2ccncc2)s1,–,"inconclusive [inhibitor, full curve]"
O=C(Nc1ccc(Cl)cc1N1CCOCC1)C1CCCO1 (stereo unspecified),inactive: -3.2%,–
COc1ccc(OC)c(-n2c(=S)[nH]c3c(sc(=S)n3-c3ccccc3C)c2=O)c1,–,"inconclusive [inhibitor, single point]"
O=C(NCc1ccccc1)C(c1cccnc1)N(C(=O)c1ccccn1)c1cccc(F)c1 (stereo unspecified),–,"inconclusive [inhibitor, partial curve, poor fit]"
S=c1[nH]ccn1Cc1ccccc1,–,"inconclusive [inhibitor, full curve, poor fit]"

SMILES,"activity change, negative = inhibition",Potency
COc1cccc(-c2nnn(CCC(=O)O)n2)c1,inactive: -14.2%,–
Cc1ccc(SCCC(=O)OCC(=O)Nc2ncc(Cl)cc2Cl)cc1,–,"inconclusive [inhibitor, full curve]"
O=C(CCCOc1ccccc1)Nc1ccc2c(c1)OCCO2,inactive: -11%,–
CN1C(=O)c2ccccc2Sc2ccc(NC(=O)NCc3ccc(Cl)cc3)cc21,inactive: -5.04%,–
Cc1ccc(NNC(=O)c2c(C)noc2C)cc1Cl,inactive: 6.03%,–
O=C(Nc1ccc(Cl)cc1Cl)C1CCCO1 (stereo unspecified),–,"inconclusive [inhibitor, partial curve, poor fit]"
O=C(Nc1ccc(Cl)cc1)NC1CCCCC1Cc1ccco1 (stereo unspecified),–,"inconclusive [inhibitor, full curve]"
Cc1ccc(NC(=O)CCC(=O)NNC(=O)COc2ccccc2)cc1C,–,"inconclusive [inhibitor, full curve, poor fit]"
COc1ccc(S(=O)(=O)N(CC(=O)Nc2ccccc2Cl)Cc2ccccc2)cc1,inactive: 6.02%,–
COc1cc(NC(=O)CCN2CCN(c3ccccc3F)CC2)cc(OC)c1,–,"inconclusive [inhibitor, full curve]"
N#Cc1c(NC(=O)CN2CCCCC2)sc2c1CCC2,–,"inconclusive [inhibitor, full curve, poor fit]"
O=C(Cc1ccccc1)Nc1ccccc1Sc1ccccc1,–,"inconclusive [inhibitor, single point]"
CCCCc1nnc(NC(=O)c2ccc(N3CCCC3=O)cc2)s1,–,"inconclusive [inhibitor, partial curve, poor fit]"
C/C(=C\c1ccc(C)o1)C(=O)c1c(C)cc(C)[nH]c1=O,inactive: 6.33%,–
C/C(=N\NC(=O)c1ccccc1O)c1cccc(NC(=O)c2ccccc2)c1,inactive: -14.3%,–
COCCNC(=O)CN(C(=O)CCC(=O)Nc1ccccn1)c1ccc(C)cc1,–,"inconclusive [inhibitor, full curve, poor fit]"
CCOc1ccc(S(=O)(=O)Nc2cccc(OC)c2)c2cccnc12,inactive: -2.95%,–
CCCCCn1nc(C)c(/C=N\NC(=O)c2cc(C)oc2C)c1C,inactive: 0.483%,–
CC1(C)CC(=O)C=C(Nc2ccc(S(N)(=O)=O)cc2)C1,–,"inconclusive [inhibitor, full curve, poor fit]"
COc1ccc(NS(=O)(=O)c2ccc3[nH]c(=O)ccc3c2)cc1OC,inactive: 14.4%,–
COc1ccc([N+](=O)[O-])cc1/C=N/NC(=O)CNC(=O)c1cccc(F)c1,inactive: -9.61%,–
COc1ccc(C)cc1NCc1ccc([N+](=O)[O-])cc1,inactive: -17.4%,–
O=C(COC(=O)/C=C/c1ccc(C(F)(F)F)cc1)NCCC1=CCCCC1,–,"inconclusive [inhibitor, full curve, poor fit]"
CN(C)CCCCCN(C)Cc1cc2ccccc2o1,–,"inconclusive [inhibitor, full curve, poor fit]"
COc1ccc(CCNC(=O)C(=O)NCC2OCCN2C(=O)c2ccc(Cl)cc2)cc1 (stereo unspecified),–,"inconclusive [inhibitor, full curve]"
Cc1cc(C)cc(NC(=O)Cn2c(=O)oc3cc(S(=O)(=O)N4CCC(C)CC4)ccc32)c1,–,"inconclusive [inhibitor, partial curve]"

SMILES,"activity change, negative = inhibition",Potency
CCCNC(=O)CN(Cc1ccccc1F)S(=O)(=O)c1ccc(C)cc1,–,"inconclusive [inhibitor, single point]"
O=C(N/N=C/c1c(Cl)cccc1Cl)c1cccc(F)c1,inactive: 0.736%,–
Cc1ccc(C)c(-n2c(CNC(=O)c3ccco3)nnc2SCC(=O)N2CCc3ccccc32)c1,inactive: 5.26%,–
CCn1c2c(c(=O)n3ncc(C(=O)N4CCN(c5ccc(C(C)=O)cc5)CC4)c13)CN(Cc1ccc(OC)cc1)CC2,inactive: 19.1%,–
OC(CNCc1ccccc1)Cn1ccc2ccccc21 (stereo unspecified),inactive: 1.36%,–
O=C(CSc1nnc2c(Cl)cc(C(F)(F)F)cn12)NCc1ccc(F)cc1,inactive: -0.962%,–
O=C(NCCS(=O)(=O)N1CCCCC1)c1ccccc1,–,"inconclusive [inhibitor, partial curve]"
CCCCn1c(CNC(=O)CC)nc2ccccc21,–,"inconclusive [inhibitor, full curve, poor fit]"
O=C(Nc1scc(-c2cccs2)c1C(=O)O)c1cccs1,–,"inconclusive [inhibitor, full curve, poor fit]"
CCSc1nnc(NC(=O)COc2ccccc2[N+](=O)[O-])s1,inactive: -6.81%,–
C=C1CCC[C@]2(C)C[C@H]3OC(=O)C(CNCCN(CC)CC)[C@H]3CC12 (stereo partly specified),inactive: 3.89%,–
CCCn1cnc2c(sc3nc4c(cc32)CSC(C)(C)C4)c1=O,–,"inconclusive [inhibitor, full curve]"
CCC1CCCN1Cn1cnc2c([nH]c3ccc(Cl)cc32)c1=O (stereo unspecified),–,"inconclusive [inhibitor, full curve, poor fit]"
CC(NC(=O)CS(=O)(=O)c1ccccc1)c1ccccc1 (stereo unspecified),inactive: -3.77%,–
CSCCC(NC(=O)c1ccco1)C(=O)Nc1ccc(C)cn1 (stereo unspecified),–,"inconclusive [inhibitor, partial curve, poor fit]"
Nc1nnc(CSCc2ccc(Cl)cc2)s1,–,"inconclusive [inhibitor, full curve, poor fit]"
COc1ccc(-n2nc3c(c2NC(=O)C2CCCC2)CS(=O)C3)cc1 (stereo unspecified),–,"inconclusive [inhibitor, partial curve, poor fit]"
COc1ccc(C2=CC(=O)C=CC2=O)cc1,–,"inconclusive [inhibitor, partial curve, poor fit]"
CN1CCC(OC(=O)C2c3ccccc3Oc3ccccc32)CC1,–,"inconclusive [inhibitor, partial curve]"
CC1CCN(c2ccc(-c3ccc(NC(=O)C(F)(F)F)cc3)nn2)CC1,–,"inconclusive [inhibitor, single point]"
Cc1ccc(-n2[nH]c(C)c(C=Nc3ccc(S(=O)(=O)Nc4nc(C)cc(C)n4)cc3)c2=O)c(C)c1,–,"inconclusive [inhibitor, single point]"
Cc1ccc(NC(=O)CCC(=O)OCC(=O)c2ccc(Oc3ccc([N+](=O)[O-])cc3)cc2)cc1C,inactive: 3.71%,–
Cc1c(C(=O)N(C)c2ccccc2Cl)cnn1-c1ccccc1,–,"inconclusive [inhibitor, full curve, poor fit]"
CC1(C)C2CCC13CS(=O)(=O)N[C@@H]3C2 (stereo partly specified),–,"inconclusive [inhibitor, full curve, poor fit]"
